Data from patent US20260109763A1, “ANTI-PILRA ANTIBODIES, USES THEREOF, AND RELATED METHODS AND REAGENTS” (DENALI THERAPEUTICS INC., priority 2021, published 2026).
Numbering of substitutions follows the chain as printed.

B1: Reference Antibody #3: reference anti-PILRA antibody; heavy and light chain sequences among SEQ ID NOS:128-135 (antibody)
heavy: QVTLKESGPGMLQPSQTLSLACSFSGFSLNSFGVAVGWIRQPSGKGLEWLAHIWWDDDKSYNPALKSRLTISKDTSKNQVFLKLANVDTADTATYYCTRIADYGNHFDYWGQGTALTVSSASTKGPSVFPLAPSSKSTSGGTAALGCLVKDYFPEPVTVSWNSGALTSGVHTFPAVLQSSGLYSLSSVVTVPSSSLGTQTYICNVNHKPSNTKVDKKV[left out - human IgG1 Fc with changes]
light: DIQMNQSPSSLSASLGDTITITCHASQNSHVWLSWYQQKPGNIPKLLIYKASNLHTGVPSRFSGSGSGTGFTLTISGLQPEDIATYYCQQGQTYPFTFGSGTKLEIKRTVAAPSVFIFPPSDEQLKSGTASVVCLLNNFYPREAKVQWKVDNALQSGNSQESVTEQDSKDSTYSLSSTLTLSKADYEKHKVYACEVTHQGLSSPVTKSFNRGEC
B2: Reference Antibody #2: reference anti-PILRA antibody; heavy and light chain sequences among SEQ ID NOS:128-135 (antibody)
heavy: QVILKESGPGILQSSQTLSLTCSFSGFSLSTFGMGVGWIRQPSGKGLESLAHIWWDDDKFYNPALKSRLTISKDTSKSQVFLKIANVDTADIATYYCTRIEDYGSYFAYWGQGTTLTVSSASTKGPSVFPLAPSSKSTSGGTAALGCLVKDYFPEPVTVSWNSGALTSGVHTFPAVLQSSGLYSLSSVVTVPSSSLGTQTYICNVNHKPSNTKVDKKV[left out - human IgG1 Fc with changes]
light: B1 light with I2V, T18P, S29I, S34N, K39R, K45R, G77S, T93S, F96Y, S100G

Assays:
[1] = molecular target: cynoPILRA; assay: SPR (Biacore 8K) binding affinity to cynoPILRA; design: species or system cynomolgus monkey; conditions: Table 6
Experimental: (§1) The binding affinities of anti-PILRA antibodies to hPILRA, hPILRB, and cynoPILRA extracellular domain (ECD) were measured by SPR using a Biacore 8K instrument (Table 2). Antibodies were captured on Biacore™ Series S CM5 sensor chips immobilized with mouse anti-human Fab (human Fab capture kit from GE Healthcare) followed by injections of serial 3-fold dilutions of recombinant ECD reagents at a flow rate of 30 μL/min. Each sample was analyzed using a 3-minute association followed by a 10-minute dissociation. After each injection, the sensor chip was regenerated using a 5 0 mM glycine pH2.0 regeneration buffer. A 1:1 Languir model of simultaneous fitting of kon and koff was used for kinetics analysis.
(§2) The binding affinities of four reference anti-PILRA antibodies to hPILRA, hPILRB, and cynoPILRA were measured by SPR using a Biacore 8K instrument (described in Example 2). The EC50 binding values of the four reference antibodies were also measured in HEK293 cells expressing hPILRA G78.
(§3) Further, humanized antibody clones 36-39 were generated. The binding affinities of these clones for hPILRA G78, hPILRA R78, hPILRB, and cyno PILRA were measured by SPR (Table 8).

[2] = molecular target: T1, hPILRB (Homo sapiens, UniProt Q9UKJ0); assay: SPR (Biacore 8K) binding affinity to hPILRB; conditions: Table 6
T1 construct: injections of serial 3-fold dilutions of recombinant ECD reagents
T1 sequence (Q9UKJ0 with tags, fused parts or gaps): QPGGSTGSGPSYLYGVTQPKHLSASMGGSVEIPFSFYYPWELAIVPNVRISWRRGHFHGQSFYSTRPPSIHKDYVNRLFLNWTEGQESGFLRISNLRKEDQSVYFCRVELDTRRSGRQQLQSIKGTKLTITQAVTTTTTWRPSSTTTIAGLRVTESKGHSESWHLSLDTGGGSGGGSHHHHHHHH
Experimental: as §1, §2, §3

| cynoPILRA KD [1] | hPILRB KD [2] | Molecule |
| --- | --- | --- |
| Very weak | Very weak | B1 |
| No binding | No binding | B2 |
